The source gives no read counts; variants with many changes may rest on few reads.
B1: LINE1-mini (parent)
chain: GGCAGAGCUCAACACAGCGUGGCAAAGUGGCUGUGGCUAGACUGCC

Variants of: B1
Assay: self-cleavage, relative activity (ratio to wild type); higher = more cleavage; in vitro, sequencing; the parent is a self-cleaving ribozyme

Variant | self-cleavage
GGCAGAGCAGAAGACAGGUUGGCAAAGUGGCUGUGGCUAGACUGCC [U9A C10G C13G C18G G19U] | 0.01
GGCAUAGCUCAACACAGCGGUGCAAAGAGGCUGUGGCUAGACUGCC [G5U U20G G21U U28A] | 0.01
GCCAGAGCUCACCACAGCGUGGCAAAGUGCCUGUGGCUAGACUGCC [G2C A12C G30C] | 0.1
GGCAAAGCUCAACACAGCGUGGCAAAGUUGCUGUGGCUUAACUGCC [G5A G29U A39U G40A] | 0.01
GGCAGAGCUCAACACAGCACGGCAAAGAGGCUGUGGUUAGACCACC [G19A U20C U28A C37U U43C G44A] | 0.04
GGCAGAGCUCAACACAGCGUGGCAACGUGUCUGUGGCCAGACUGCU [A26C G30U U38C C46U] | 0.6
UGCAGAGCUAAACACCGCGUGGCAAAGUGGCUGUGGCUAGACUGCC [G1U C10A A16C] | 0.04
GGCAGAGCUCAACACAGCGUGGCAAAGUGGCUGUUGGUAGACUGCG [G35U C37G C46G] | 0
GGCAGAGCUCAACACGGCGUGGCAAAGUGGCUGUGGCUAGACUGAA [A16G C45A C46A] | 0.03
GGAACGGCUCAACACAGCGUGGCAAAAUGGCUGUGGCUAGACUGCA [C3A G5C A6G G27A C46A] | 0.12
GACUGAGCUCAACUCAGCGUUGCAAAGUGGCUGUGGCUAGACUGCC [G2A A4U A14U G21U] | 0.09
GGCAGAGCUAAACACAGCGUCUCAAAGUAGCUGUGGCUAGACUGCC [C10A G21C G22U G29A] | 0
GGCAGAGCGCAACAAAGCGUUGCAAAGUGGCUGUGGCUAGACUGCC [U9G C15A G21U] | 0.01
AGCAGAGCUCAACACAGCGGGGCAAAGUGGCUGUGGCUAGACUGUC [G1A U20G C45U] | 0.11
GGCAGAGCCACACACAGCGUGGCAAAGUGGGUGUUGCUAGACUGCC [U9C C10A A11C C31G G35U] | 0
GGCAGAGCCCAACACAGUGUGCCAAAGUGGCUGUGGCUAGACUGCC [U9C C18U G22C] | 0.03
GGUAGACCUCAACAUAGCGUGGCAAAGUGGCUGUGGCUAGACUGCC [C3U G7C C15U] | 0.07
GACACAGCUCAACACAUCGUGGCAAAGUGGCUGUGGCUAGGCUGCC [G2A G5C G17U A41G] | 0.05
GGAAGAUCUCAACACAGCGUGGCAAAGUGGCUGUUGCUAGACUGCC [C3A G7U G35U] | 0.77

Variant | self-cleavage
GGCAGGGCUCAACACCGCGUGGCAAAUUGGCUGUGGCUAGACUGCC [A6G A16C G27U] | 0.12
GGCAGAGCUCUACACAGCGUGGCAAAGUGGAGAUGGCUCUAUUGCC [A11U C31A U32G G33A A39C G40U C42U] | 0
CGCAGAGCUUUACACAUCGUGGCAAAGUGGAUGUGGCUAGACUGCC [G1C C10U A11U G17U C31A] | 0.01
GGCAGAGCUCAACAGACCGGGGCAAAGUGGCUGUGGCUAGACUCCC [C15G G17C U20G G44C] | 0.02
GGCAGAACUCAACACCCCGUGGCAAAGUGGCUGUCGCUAGACUGCC [G7A A16C G17C G35C] | 0.02
GGCAGAGCUCAACACAGUGUGGCAAAGUGUCUGUGGCUAGACUGCU [C18U G30U C46U] | 0.22
GGCGGAGCUCAACACAGCGUGACAAAGUGGCUGUAGAUAGACUCCC [A4G G22A G35A C37A G44C] | 0.07
GGCAAAGAUAAACACAGCGUGGCAAAGUGGCUGUGGCUAGACUGCC [G5A C8A C10A] | 0.02
GGCACAGCGCAACACAGCGUGGCAAAGUGGCUGUGCCUAGACUGCC [G5C U9G G36C] | 0.1
GGCAGAGCUCAACACCGCUUGGCAAAGUGGCUGUGGCUAGACUACC [A16C G19U G44A] | 0.01
UGGAGUGUUCAACACCGCGUCGCAAAGUGGCUGUGGCUAGACUGCG [G1U C3G A6U C8U A16C G21C C46G] | 0.06
GGCAAAGCUCAACACGGCGUGGCAAAGUGGCUGUGGCUAGUCUGCC [G5A A16G A41U] | 0.03
GGCAGACCUCAACACAACGUGUCCAAGUGGCUGUGGCUAGACGGCC [G7C G17A G22U A24C U43G] | 0.01
GGCAGUGGUCAACGCAGCGUGGCAAAGUGGCUGUGGCUAGACUGCC [A6U C8G A14G] | 0.98
GGCAGCGCUCAACACAGCGUGGCAAAGUGGCUGUGGCUAGACCGAC [A6C U43C C45A] | 0.04
GGCAGAGCUCAACACAGUAUGGCAAAGUGGCUGUGGCGGGACUGCA [C18U G19A U38G A39G C46A] | 0.01
GGCCGAGUUCAACACAGGGUGGCAAAGUGGCUGUGGCUAGACUGCC [A4C C8U C18G] | 0.03
GGCAGAGCUCAACACAGCGUGGCCAAAUGGAUGUGGCUAGACUGCC [A24C G27A C31A] | 0.06
GGGAGAUCUCAACACAGCGUGGCAAAGUGGCUGUGGCUAGAAUGCC [C3G G7U C42A] | 0.05

Variant | self-cleavage
GGCAGAGCUCAACACAGCUUGGAAAACUGUCUGUGGCUAGACUGCC [G19U C23A G27C G30U] | 2.51
GGGAGAGCUCAACACAGCGUGGCUAAGUGGCUCUAGCUAGAAUGCC [C3G A24U G33C G35A C42A] | 0.03
GGCAGAGCUCAACACAGCGUGGCAAAGUGCUUGUGGCUAGAAUGCC [G30C C31U C42A] | 0.08
GGCAGAGCUAAACACCGCGUGGCAAAGUGGCUGUGGCAAGACUGCC [C10A A16C U38A] | 0.08
GGCAUAGCUCGACACAGCGUGGCAAAGUGGCUGUGGCUGGACUGCC [G5U A11G A39G] | 0.01
GGCAGAGCUCAACACAGCGUAACAAAGUGGCCGUGGCUAGACUACC [G21A G22A U32C G44A] | 0.09
GGCAGAGCUCAACACAGCGUGUCAAAGUGGUUGUAGCUAGACUGCC [G22U C31U G35A] | 0.03
GGUAGAGCUCAAGACAGCGGGGCAAAGUGGCUGUGGCUAGACUGCC [C3U C13G U20G] | 0.1
GGCUGAGCUCAACACAGCGUGGCAAAGUUGCUGGGGCUAGACUGCC [A4U G29U U34G] | 0.05
GGAAGACGUCAACACAGCGUGGCAAGGUGGCUGCGGCUAUACUGCC [C3A G7C C8G A26G U34C G40U] | 0.09
GGCAGACCACAACACAGCGUGGCAAACUGGCUGUGGCUAGACUGCC [G7C U9A G27C] | 0.11
GGCAGUGCUCAACGCAGCGUGGCAAAGUGGCUGUGGCUAGGCUGCC [A6U A14G A41G] | 0.09
GGCAGAGCUCAAAACAUCGUGGCAAAGUGGCUGUGGGUAGACUGUC [C13A G17U C37G C45U] | 0.07
GGCAGAACUCAACACAGCGUGACAAAGUGGCUGUGGGUAGGCUGCG [G7A G22A C37G A41G C46G] | 0.01
GGCAGAGCUCAACACAGCGGGGCAAAGUGGCUGUGGCUAGGCUGCG [U20G A41G C46G] | 0.08
GGCAGACCUCAACACAGCGUGGCAAAGUGGCUGUGCUUAGACGGCU [G7C G36C C37U U43G C46U] | 0.03
GGCAAAGCUCAACACAGCGCGGUAAAGUGGCUGUGGCUAGACUGCC [G5A U20C C23U] | 0.03
GUCAGAGCUCAACACAACGUGGCACAGUGGCUGUGGCUAGACUGCC [G2U G17A A25C] | 0.05
